We go through one compound from PubChem BioAssay (NCI).

The subject of the test is NCI-H322M lung. Nature of the test: growth of human tumour cells (NCI), 48 h.

“And” between values parts separate entries of the source, which are not always exact repeats. Equal entries are not always repeated.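 48-hour exposure; five concentrations; linearly interpolated endpoints. GI50 is the concentration that inhibits growth by half.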

Consider `CC[C@]1(O)C[C@H]2CN(CCc3c([nH]c4ccccc34)[C@@](C(=O)OC)(c3cc4c(cc3OC)N(C=O)[C@H]3[C@@](O)(C(=O)OC)[C@H](OC(C)=O)[C@]5(CC)C=CCN6CC[C@]43[C@@H]65)C2)C1`, for which the GI50 was 97.6 nM and 103 nM.
